The structures appear in SMILES notation. Among all 43,000 compounds or so, about 200 (0.47%) were called active. Inconclusive results (about 12%) are left out. Calls follow the shape of the dose curve; as a rule, active = well fitted cell-killing curve with a large enough effect; inconclusive = small, poorly fitted or top-dose-only effect, or effect the other way; inactive = flat fitted curve, though single readings scatter. The list shows a part of the results.

We go through 97 compounds from PubChem BioAssay AID1508642 (National Center for Advancing Translational Sciences (NCATS), 2021).
% is scaled to controls: 0 for no effect and ±100 for the full control effect.

The experiment is described as follows: Cell viability qHTS assay in S16 Pmp22-F2sN cells. Also: nearly all actives have a fitted effect of over 65% in size. The settings on record: S16 Pmp22-F2sN Schwann cells (luciferase reporters placed in the Pmp22 gene) viability, CellTiter-Glo, 24 h; series mostly up to 57.5 µM; activity change, negative = cytotoxicity: at the top concentration. The gist of the method:
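Seed 500-1,000 S16 Pmp22-F2sN cells per well in phenol-red-free DMEM with 10% heat-inactivated FBS; pin-add 23 nL compound; incubate 24 h at 37C; add CellTiter-Glo, wait 15 min protected from light; read luminescence.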
A general note: In qHTS, concentration-response curves come from the screen itself.
On to `CCN(CC)C(=O)C1CCN(S(=O)(=O)c2c(C)noc2/C=C/c2cccc(OC)c2)CC1`, for which the “activity change, negative = cytotoxicity” value is inactive: -13.8%.
The result for `CCC(C)NC(=O)CCCc1nnc2n(CC(C)C)c(=O)c3sccc3n12` (configuration not stated) reads inactive: 16.7%; that for `CN(C)CCNC(=O)c1ccc(-c2nn(C)c(=O)c3ccccc23)cc1`, inactive: -0.625%; that for `CSc1ccc(-c2nc3cccc(C)n3c2Nc2ccc(Cl)cc2)cc1`, inactive: -5.72%.
On to `COc1ccccc1N1C(=O)N(CC(=O)C(C)(C)C)c2ccccc2S1(=O)=O`, for which the “activity change, negative = cytotoxicity” value is inactive: 6.34%.
The result for `O=C(O)c1ccc(NC(=O)c2cc(S(=O)(=O)N3CCCCC3)c(Cl)cc2Cl)cc1` reads inactive: 12.1%.
Next, `Cc1cccc(C(=O)NNc2ncnc3c2cnn3-c2ccc(C)cc2C)c1`: inactive: 18.4%.
The result for `COc1cccc(C(=O)Nc2nnc(S(=O)(=O)N3CCCC3)s2)c1` reads inactive: -8.49%; that for `Cc1ccc(Cn2cnc3nc4c(cc3c2=O)CC(C)CC4)cc1` (configuration not stated), inactive: -1.01%; that for `CC(C)c1ccc(S(=O)(=O)c2cnc(SCC(=O)Nc3ccc4c(c3)OCCO4)[nH]c2=O)cc1`, inactive: -2.88%.
As for `CCOc1ccc(CCNC(=O)c2nn(C)c3c2CSc2ccccc2-3)cc1`, the “activity change, negative = cytotoxicity” value is inactive: 2.65%.
The result for `CCOC(=O)c1c(NC(=O)C2c3ccccc3Oc3ccccc32)sc(C)c1CC` reads inactive: -0.825%; that for `O=C(NCc1ccc(F)cc1)C1(c2cccs2)CCOCC1`, inactive: 11.7%; that for `Cc1ccc(OCC(=O)Nc2nnc(S(=O)(=O)N3CCCCCC3)s2)cc1`, inactive: -6.73%.
Next, `COc1cc(Nc2nc3c(S(=O)(=O)c4ccc(C)c(C)c4)nnn3c3ccsc23)cc(OC)c1`: inactive: 8.65%; `CC(C)(C)C1CCc2nc(NC(=O)Cc3ccccc3)sc2C1` (configuration not stated): inactive: -3.35%.
Next, `CCn1c(=O)cc(OCC(=O)N(C)c2cc(Cl)ccc2C)c2ccccc21`: inactive: -5.3%; `Cc1ccc(-c2cn3c(n2)sc2cc(C(=O)NCCCc4ccccc4)ccc23)c(C)c1`: inactive: -25.7%.
For `CCCCN(CCCNC(=O)c1cc(Nc2ccc(OC)c(OC)c2)nc2ccccc12)c1ccccc1`, the “activity change, negative = cytotoxicity” value was inactive: 16.8%.
The result for `CC1CCCN(S(=O)(=O)c2ccc3c(c2)c(=O)nc2ccccn23)C1` (configuration not stated) reads inactive: 4.26%.
Next, `CCOc1ccc(CNCc2c(C(=O)O)c(C)n(Cc3c(F)cccc3Cl)c2C)cc1OC`: inactive: -5.9%; `COc1ccccc1-c1noc(-c2ccc(NCC3CCCO3)c([N+](=O)[O-])c2)n1` (configuration not stated): inactive: -19.7%.
The result for `Cc1ccc2oc(=O)n(CCCOc3ccccc3Cl)c2c1` reads inactive: -6.43%; that for `Cc1cc(C)c(S(=O)(=O)NCC(c2ccc(N(C)C)cc2)N2CCOCC2)c(C)c1` (configuration not stated), inactive: -0.399%; that for `CCc1cccc(NC(=O)CN(C)S(=O)(=O)c2ccc3c(c2)CCCN3C(C)=O)c1`, inactive: -7.92%.
`CCOC(=O)c1cnc2c(C)c(Cl)ccc2c1Nc1ccc(N2CCOCC2)cc1`: the “activity change, negative = cytotoxicity” value was inactive: 2.89%.
The result for `CC(CCc1ccccc1)NC(=O)Cn1c(=O)nc(-c2ccccc2)c2ccccc21` (configuration not stated) reads inactive: 5.4%.
The result for `Cc1ccccc1Nc1c(-c2cccnc2)nc2ccc(Cl)cn12` reads inactive: -19%; that for `CCc1nn2c(=O)c(S(=O)(=O)Nc3ccc(Cl)cc3)c(C)nc2s1`, inactive: -7.08%; that for `CCCCN(C)CCNC(=O)CN1C(=O)CSc2ccc(S(=O)(=O)N3CCOCC3)cc21`, inactive: 18.7%.
Next, `Cc1cc(Nc2cccc(C(F)(F)F)c2)nc2ccc(NC(=O)c3cccc(Cl)c3)cc12`: inactive: -19.5%.
As to `O=C(Cn1cc(S(=O)(=O)c2ccccc2)c(=O)c2cc(Cl)ccc21)Nc1ccc2c(c1)OCO2`, the “activity change, negative = cytotoxicity” value was inactive: 9.15%.
The result for `O=S(=O)(c1cccc2ccccc12)N1CCN(c2ccc(Cl)c(Cl)c2)CC1` reads inactive: 2.28%; that for `COc1ccc(NC(C)=O)cc1NC(=O)CN1CCN(c2ccc(F)cc2)CC1`, inactive: 9.46%; that for `CCOc1cc(C(=O)NCC(c2ccc(N(C)C)cc2)N2CCOCC2)cc(OCC)c1OCC` (configuration not stated), inactive: 13.4%.
Consider `Cc1ccc(CNC(=O)c2ccc(CS(=O)Cc3cccc(Cl)c3)o2)cc1` (configuration not stated), for which the “activity change, negative = cytotoxicity” value was inactive: 5.55%.
The result for `COc1ccc(-c2cc(C(F)(F)F)nc(SCC(=O)NCC(C)C)n2)cc1OC` reads inactive: 2.41%.
Next, `COc1ccccc1NC(=O)C1=C(C)Nc2nc3ccccc3n2C1c1cccc(OC)c1OC` (configuration not stated): inactive: -19.4%; `Cc1ccn2c(=O)cc(COc3cccc(NC(=O)Nc4cccc(Cl)c4C)c3)nc2c1`: inactive: 7.96%; `COc1ccc(C)cc1Nc1cc(C)nc(C)n1`: inactive: -1.74%.
The result for `O=C(CN1C(=O)c2cccnc2Oc2ccc(Cl)cc21)Nc1cccc(C(F)(F)F)c1` reads inactive: -8.97%; that for `CC(C)Oc1ccc(C(=O)Nc2c(C(=O)Nc3cccc(F)c3)oc3ccccc23)cc1`, inactive: 13.8%; that for `O=C(CCn1ccc2cc(S(=O)(=O)N3CCCC3)ccc21)NCc1ccccc1Br`, inactive: -19.4%.
`COc1ccc(CNC(=O)CCc2c(C)c3cc4c(C)c(C)oc4cc3oc2=O)cc1OC`: the “activity change, negative = cytotoxicity” value was inactive: -5.66%.
On to `CC(C)c1ccc(OCC(=O)N(Cc2cccs2)C2CCS(=O)(=O)C2)cc1` (configuration not stated), for which the “activity change, negative = cytotoxicity” value was inactive: -8.37%.
The result for `CCc1nc2nc(C)cc(Nc3cccc(C)c3C)n2n1` reads inactive: -19.3%; that for `CCc1ccc(NC(=O)CN2C(=O)C3(SCC(=O)N3c3ccc(F)c(F)c3)c3ccccc32)cc1` (configuration not stated), inactive: -12.3%; that for `Cc1ccc(N2CC(C(=O)Nc3ccc(N(C)C)cc3)CC2=O)cc1Cl` (configuration not stated), inactive: -1.03%.
The result for `Fc1ccccc1N1CCN(c2nc3ccccc3c3nc(-c4ccccc4)nn23)CC1` reads inactive: -10.2%; that for `CSc1ccc(-c2nnc(NC(=O)c3ccc4c(c3)OCCO4)o2)cc1`, inactive: -21.3%.
The result for `Cc1nnc(N2CCC(C(=O)NCCC(C)C)CC2)c2nn(-c3ccc(Cl)cc3)c(C)c12` reads inactive: -17.3%; that for `CCOc1cc(Cl)c(S(=O)(=O)n2ccnc2)cc1Cl`, inactive: 5.68%.
For the compound `CCC(C(=O)N1CCN(c2ccccc2)CC1)n1c(C)c2cnn(-c3ccccc3)c(=O)c2c1C` (configuration not stated), the “activity change, negative = cytotoxicity” value is inactive: 4.89%.
The result for `O=C(NC1CCCC1)c1ccc2c(=O)n(Cc3ccccc3)c(SCc3cccc(F)c3)nc2c1` reads inactive: 1.33%; that for `CCN(CC)c1ccc(NC(=O)CCCN2C(=O)C(c3ccccc3)Oc3cccnc32)c(C)c1` (configuration not stated), inactive: 8.23%; that for `COC(=O)c1ccc(NC(=O)CN2C(=O)CC(c3ccccc3)Sc3ccccc32)cc1` (configuration not stated), inactive: 18.9%.
Next, `Cc1cc(C)n(C(C)CC(=O)Nc2ccc(C)c(N(C)C)c2)n1` (configuration not stated): inactive: 2.05%; `CCc1ccc(NC(=O)Cn2ccn(-c3ccc(C)c(C)c3)c(=O)c2=O)cc1`: inactive: -4.95%.
The result for `Cc1ccc(S(=O)(=O)c2nc(S(=O)(=O)c3ccccc3)sc2NCCCOC(C)C)cc1` reads inactive: -18.4%.
`COc1ccc(NC(=O)c2oc3ccccc3c2NC(=O)Cc2coc3c(C)c(C)ccc23)cc1`: the “activity change, negative = cytotoxicity” value was inactive: 8.53%.
The result for `COc1ccccc1-c1cc(C(=O)NCc2ccccc2)c2c(-c3ccc(C)cc3)[nH]nc2n1` reads inactive: -2.01%; that for `COc1ccc(-c2nc3cc(NC(=O)CSc4ccc(C)cc4)ccc3o2)cc1`, inactive: 22.5%.
The result for `CCN(CC)CCNC(=O)c1c2c(nc3ccccc13)C(=O)N(C1CCCCC1)C2` reads inactive: 4.26%.
Take `Cc1ccc(S(=O)(=O)NCCc2cn3ccsc3n2)c(C)c1`: the “activity change, negative = cytotoxicity” value was inactive: -1.32%.
The result for `COc1cccc(NC(=O)Cn2cc(C(=O)c3ccc(C)cc3)c(=O)c3cc(OC)ccc32)c1` reads inactive: -12.5%; that for `Cc1ccccc1NC(=O)Cn1c(=O)n(Cc2ccc3c(c2)OCO3)c(=O)c2ccccc21`, inactive: 12.9%; that for `CCOc1ccc(NC(=O)/C(C#N)=C\c2ccc(-c3ccc(Cl)cc3)o2)cc1`, inactive: 12.5%.
With `Cc1c(Cl)cccc1NC(=O)CCS(=O)(=O)c1ccc2c(c1)CC(=O)N2C`, the “activity change, negative = cytotoxicity” value is inactive: 17.7%.
In the case of `O=C(CSc1n[nH]c(-c2ccc(F)cc2)n1)NCCc1ccccc1`, the “activity change, negative = cytotoxicity” value was inactive: 2.6%.
The result for `COc1ccc(-c2csc(=Nc3ccccc3)n2CCO)cc1F` reads inactive: -20.7%; that for `CCOC(=O)c1c(Nc2ccc(OC)cc2)nnc(-c2ccccc2)c1-c1ccccc1`, inactive: -16%; that for `CCOc1ccc(NC(=O)COc2ccc(S(=O)(=O)NC3CCCCC3)cc2)cc1`, inactive: 11.7%.
Next, `COc1ccc(Nc2c(-c3cccc(O)c3)nc3cnccn23)cc1`: inactive: -9.07%; `CCOC(=O)N1CCc2c(sc3c2c(=O)n(-c2ccc(Cl)cc2)c(=O)n3CC(C)C)C1`: inactive: 13.1%.
Next, `Cc1cccn2c(=O)c(C(=O)NCc3cccc(F)c3)cnc12`: inactive: -3.31%.
For `CCOc1ccc(CNC(=O)Cc2ccc(NC(=O)N3CCSc4ncccc43)cc2)cc1`, the “activity change, negative = cytotoxicity” value was inactive: 0.137%.
The result for `Cc1cccc(-c2nc3scc(CCNS(=O)(=O)c4ccc5c(c4)OCCO5)n3n2)c1` reads inactive: -2.39%; that for `Cc1ccc(Cl)cc1Nc1nn2c(=O)c3ccc(C(=O)NCc4ccc(F)cc4)cc3nc2s1`, inactive: -1.25%; that for `CCCOc1ccc(-c2nc(SCC(=O)c3ccc(Cl)cc3)n[nH]2)cc1`, inactive: 3.67%.
The result for `CC(=O)c1ccc(N2CCN(C(=O)C3CCN(S(=O)(=O)c4cn(C)cn4)CC3)CC2)cc1` reads inactive: -4.05%.
Consider `Cn1c(=O)c2sccc2n2c(CCC(=O)NCc3ccc(Cl)cc3)nnc12`, for which the “activity change, negative = cytotoxicity” value is inactive: 3.26%.
On to `CCOc1ccccc1C(=O)NC1(C(F)(F)F)C(=O)Nc2c1c(=O)[nH]c(=O)n2-c1ccc(F)cc1` (configuration not stated), for which the “activity change, negative = cytotoxicity” value was inactive: -0.918%.
For the compound `CSc1ccc(CCNC(=O)CCc2c(C)nc3ncnn3c2C)cc1`, the “activity change, negative = cytotoxicity” value was inactive: 0.0605%.
In the case of `CC(C)c1cnc2c(c1SCC(=O)NCc1ccccc1Cl)c(=O)n(C)c(=O)n2C`, the “activity change, negative = cytotoxicity” value was inactive: -3.31%.
The result for `Cc1cccc2c1-c1sc(C(=O)N(C)c3cccc(Cl)c3)cc1CO2` reads inactive: 2.9%.
Turning to `COc1ccc(C(CC(=O)Nc2ccc(C(C)=O)cc2)N2Cc3ccccc3C2=O)cc1` (configuration not stated), the “activity change, negative = cytotoxicity” value is inactive: 7.54%.
The result for `COc1ccc(NC(=O)NC2COc3ccccc3C2)cc1Cl` (configuration not stated) reads inactive: 18.8%; that for `Cc1ccc(CN2C(=O)c3ccccc3CC2(C)C(=O)NC2CCCCC2)cc1` (configuration not stated), inactive: 14.6%; that for `Cc1cccc(N2CCN(C(=O)c3noc4c3COc3ccc(C)cc3-4)CC2C)c1` (configuration not stated), inactive: 9.62%.
Next, `Cc1ccc(C(=O)Nc2cccc3cccnc23)cc1Cl`: inactive: 4.4%; `COc1cccc(OC)c1C(=O)NCCc1csc(-c2ccc(Cl)cc2)n1`: inactive: 3.85%.
The result for `COC(=O)c1c(-c2cccs2)csc1NC(=O)COc1ccc(C)cc1` reads inactive: 2.54%; that for `O=c1c(NCc2cccs2)nccn1-c1ccc(F)cc1`, inactive: -2.49%.
`Cc1nc2ccccc2n1CCc1nc2c3ccccc3nc(SCc3ccc(C#N)cc3)n2n1`: the “activity change, negative = cytotoxicity” value is inactive: -1.26%.
The result for `COc1cccc(NC(=O)CN(CCc2ccccc2)S(=O)(=O)c2ccc(Cl)cc2)c1` reads inactive: -2.48%; that for `Cc1cccc(-c2nc3c4ccccc4nc(NCCc4ccccc4)n3n2)c1`, inactive: 7.89%.
For `O=S(=O)(NCc1nc2cccnc2n1Cc1ccccc1Cl)c1ccc2c(c1)CCCC2`, the “activity change, negative = cytotoxicity” value was inactive: -2.07%.
